“And” between values parts separate entries of the source, which are not always exact repeats. Equal values may be shown once. The whole screen tested about 390,000 compounds, of which about 2,200 (0.56%) were called active. Inconclusive results, whose numbers are uncertain, are shown with a selection of clear calls. Calls come from the whole dose curve; as a rule, active = well fitted inhibition curve with a large enough effect; inconclusive = small, poorly fitted or top-dose-only effect; inactive = no such curve, though single readings can be large or run the other way. A potency beside an inconclusive call is a rough fit, not a confirmed value.
biological target: Chromobox protein homolog 1 (Homo sapiens) (UniProt P83916); assay: HTS for Inhibitors of HP1-beta Chromodomain Interactions with Methylated Histone Tails; details: AlphaScreen HP1-beta / biotin-H3K9me3 peptide binding; series mostly up to 114 µM; activity change, negative = inhibition: at the top concentration; note: nearly all actives have a fitted effect of over 70% in size
Method in brief: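 AlphaScreen: HP1-beta (50 nM) preformed 30 min with biotin-H3(1-18)K9me3 peptide (50 nM) in PBS pH 7.4, 0.01% Tween-20. Compound added for 30 min at RT, then streptavidin donor/nickel chelate acceptor beads (10 ug/mL) for 30 min.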
Potency is the fitted concentration of half-maximal effect; tags give direction and shape of the fitted curve.

UniProt P83916, sequence (P83916 whole entry, looked up): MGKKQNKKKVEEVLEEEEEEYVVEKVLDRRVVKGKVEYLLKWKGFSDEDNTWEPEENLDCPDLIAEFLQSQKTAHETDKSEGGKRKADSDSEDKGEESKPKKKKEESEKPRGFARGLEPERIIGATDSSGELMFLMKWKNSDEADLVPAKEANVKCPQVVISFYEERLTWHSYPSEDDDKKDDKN

Row | SMILES | Potency | activity change, negative = inhibition
1 | CCN(Cc1ccncc1)Cc1ccc(OC)c(OC)c1 | inconclusive: 14.1 µM [inhibitor, partial curve, poor fit] | 
2 | N#Cc1cc(N)ccc1-n1cccc1 |  | inactive: 24.6%
3 | O=C1CN(C(=O)CNCc2ccc(Cl)cc2)c2ccccc2N1 | inconclusive: 39.8 µM [inhibitor, partial curve] | 
4 | Cc1cc(C)nc(-n2nc(C)c(Sc3ccc(F)cc3)c2N)n1 |  | inactive: 29.1%
5 | CCOC(=O)C1CCCN(C(=O)Cn2sc3nc(C)cc(C)c3c2=O)C1 (configuration not stated) | inconclusive: 7.94 µM [inhibitor, full curve] | 
6 | CCN(CC)C(=O)CCc1nnc(Cc2cccc(C(F)(F)F)c2)o1 | inconclusive: 50.1 µM [inhibitor, partial curve, poor fit] | 
7 | Cc1ccc(C2C(C=Nc3c(C)n(C)n(-c4ccccc4)c3=O)=C(c3ccccc3)Oc3ccccc32)cc1 (configuration not stated) | inconclusive: 3.16 µM [inhibitor, partial curve, poor fit] | 
8 | CCc1ccc(S(=O)(=O)c2cn(CC)c3cc(N4CCCCC4)c(F)cc3c2=O)cc1 |  | inactive: 14.1%
9 | COc1cc(O)c(C(CC(=O)N2CCN(c3ccccc3)CC2)c2ccc(N(C)C)cc2)c(OC)c1 (configuration not stated) | inconclusive: 35.5 µM [inhibitor, partial curve] and inconclusive: 31.6 µM [inhibitor, full curve, poor fit] | 
10 | OCCn1c(-c2ccc3c(c2)OCO3)csc1=Nc1ccccc1 | inconclusive: 31.6 µM [inhibitor, partial curve] | 
11 | CCCN1CCN(C(=S)Nc2ccc3nc(N4CCN(CC)CC4)cc(C)c3c2)CC1 |  | inactive: -7.48%
12 | CCC(=O)NC(C)c1cc(Cl)c2ccccc2c1O (configuration not stated) |  | inactive: 40.8%
13 | CCOc1cc(/C=N/O)ccc1OCc1ccc([N+](=O)[O-])cc1 | inconclusive: 39.8 µM [inhibitor, single point] | 
14 | Cc1csc(SCc2ccccc2C(=O)O)n1 |  | inactive: 70.3%
15 | O=C(C1CCN(Cc2ccccc2O)CC1)N1CCN(Cc2ccc3c(c2)OCO3)CC1 | inconclusive: 56.2 µM [inhibitor, partial curve, poor fit] | 
16 | COc1cccc(NC(=O)Nc2cc(C(=O)O)ccc2N2CC3CC(C2)c2cccc(=O)n2C3)c1 (configuration not stated) |  | inactive: 34.4%
17 | CCOc1ccc(Nc2oc(Cc3ccccc3)nc2C#N)cc1 | inconclusive: 50.1 µM [inhibitor, partial curve] | 
18 | COc1ccccc1CNc1nc2c(S(=O)(=O)c3ccccc3)nnn2c2ccc(Cl)cc12 |  | inactive: 25.5%
19 | COc1ccccc1CN(C)CC(=O)Nc1ccc(Cl)cc1C(F)(F)F | inconclusive: 15.8 µM [inhibitor, full curve, poor fit] | 
20 | COc1ccc(OC)c2sc(N(CCN(C)C)C(=O)c3cc(Cl)sc3Cl)nc12 | inconclusive: 44.7 µM [inhibitor, partial curve, poor fit] | 
21 | CCCOc1ccc2c(c1)C(=NN=C(N)N)c1cc(OCCC)ccc1-2 | inconclusive: 50.1 µM [inhibitor, partial curve, poor fit] | 
22 | Cc1nc2cc(NCc3ccccc3O)ccc2n1Cc1ccccc1 | inconclusive: 17.8 µM [inhibitor, full curve, poor fit] | 
23 | CCN1C(=O)/C(=C/C2=Cc3ccccc3OC2C)SC1=S (configuration not stated) | inconclusive: 11.2 µM [inhibitor, full curve] | 

Row | SMILES | Potency | activity change, negative = inhibition
24 | COc1ccc(CN2CCN(c3ccccn3)CC2)cc1OCc1ccccc1 | inconclusive: 12.6 µM [inhibitor, full curve] | 
25 | COc1ccc(-c2c(-c3ccccc3)c(C(=O)C(=O)NCCCN(C)C)n3ccc4cc(OC)c(OC)cc4c23)cc1OC | inconclusive: 56.2 µM [inhibitor, single point] | 
26 | CCC1(C)Nc2ccccc2C(=O)N1O (configuration not stated) |  | inactive: 5.33%
27 | CN(C)c1ccc(Nc2nc3ccccc3n3nnnc23)cc1 | inconclusive: 11.2 µM [inhibitor, full curve] | 
28 | CCc1ccc(C(O)(CC(C)C)C(CN2CCOCC2)c2ccccc2)cc1 (configuration not stated) |  | inactive: 19%
29 | COC(=O)CCC(=O)Nc1cc(S(=O)(=O)Nc2ccc(Cl)cc2)ccc1N1CCOCC1 | inconclusive: 31.6 µM [inhibitor, single point] | 
30 | COc1ccc(CN(Cc2ccccc2)C(=O)c2ccno2)cc1COc1ccc(NC(C)=O)cc1 | inconclusive: 44.7 µM [inhibitor, partial curve] | 
31 | N#C/C(=C\c1ccc(O)c([N+](=O)[O-])c1)c1nc2ccccc2s1 | inconclusive: 35.5 µM [inhibitor, partial curve] | 
32 | CCOc1c(O)ccc(/C=C2\SC(=S)NC2=O)c1[N+](=O)[O-] | inconclusive: 35.5 µM [inhibitor, partial curve] | 
33 | Fc1ccc(-n2c(=S)[nH]c3cccnc32)cc1 | active: 70.8 µM | 
34 | Cc1ccccc1-c1noc(-c2ccccc2C(=O)NCc2ccco2)n1 | inconclusive: 35.5 µM [inhibitor, single point] | 
35 | CCCCCC(=O)Nc1sc(C)c(C)c1C#N | inconclusive: 31.6 µM [inhibitor, partial curve] | 
36 | C=CCc1cccc(OC)c1OCCOCCn1ccnc1 | inconclusive: 56.2 µM [inhibitor, partial curve, poor fit] | 
37 | COc1ccccc1Nc1nc(-c2sc(NC(=O)c3ccco3)nc2C)cs1 |  | inactive: -7.81%
38 | CCCCCOP(=O)(OCCCCC)C1(NS(=O)(=O)c2ccccc2)C=CC(=O)c2ccccc21 (configuration not stated) | inconclusive: 89.1 µM [inhibitor, partial curve, poor fit] | 
39 | Cc1cc(C)c(NC(=O)CN(C)CC(=O)Nc2cccc(S(=O)(=O)N(C)c3ccccc3)c2)c(C)c1 | inconclusive: 25.1 µM [inhibitor, partial curve] | 
40 | CCOc1ccc(NC(=O)N2CC=C(c3c[nH]c4ccccc34)CC2)cc1 |  | inactive: 1.28%
41 | COc1ccc(N2CCN(Cc3nc4scc(-c5ccccc5)c4c(=O)[nH]3)CC2)cc1 | inconclusive: 39.8 µM [inhibitor, partial curve, poor fit] | 
42 | COc1cccc(OC)c1C(=O)NC(=S)Nc1cc(-c2nc3ccccc3[nH]2)ccc1Cl | inconclusive: 22.4 µM [inhibitor, single point] | 
43 | O=[N+]([O-])c1cc(/C=N/N2CCN(Cc3ccccc3)CC2)ccc1Cl | inconclusive: 44.7 µM [inhibitor, partial curve] | 
44 | O=C(O)CN1C(=O)/C(=C\c2cccc(OCc3ccccc3F)c2)SC1=S | inconclusive: 56.2 µM [inhibitor, single point] | 
45 | Clc1cccc(/C=N/N2CCN(Cc3ccccc3)CC2)c1 | inconclusive: 35.5 µM [inhibitor, partial curve] | 
46 | COc1ccc(NC(=O)CSc2nc3nc(C)c(Cc4ccc(C)cc4)c(C)n3n2)cc1OC |  | inactive: 5.15%

Row | SMILES | Potency | activity change, negative = inhibition
47 | Cc1ccc(/C=C/C(=O)N2CCN(S(=O)(=O)c3c(C)c(C)cc(C)c3C)CC2)o1 | inconclusive: 20 µM [inhibitor, full curve, poor fit] | 
48 | C/C(=N/NC(=S)Nc1cccc(C)c1)c1cccc([N+](=O)[O-])c1 | inconclusive: 35.5 µM [inhibitor, partial curve] | 
49 | CCCC1(C(=O)OCC)NC(c2ccc(O)cc2)C2C(=O)N(c3cccc(C(C)=O)c3)C(=O)C21 (configuration not stated) |  | inactive: 27%
50 | CCc1ccc(NC(=O)c2cc(S(=O)(=O)N3CCCCCC3)ccc2F)cc1 |  | inactive: 63.6%
51 | C=CCn1c(CNc2ccccc2)nnc1SCC(=O)N/N=C/c1ccc(O)cc1O | inconclusive: 22.4 µM [inhibitor, full curve] | 
52 | Cc1ccccc1NN=Nc1nc2c([nH]1)c(=O)n(C)c(=O)n2C | inconclusive: 56.2 µM [inhibitor, partial curve, poor fit] | 
53 | Cc1ccc(S(=O)(=O)c2cnc3cc(C)nn3c2N)cc1 |  | inactive: 20.8%
54 | CCn1c(SCC(=O)c2cc(C)n(C)c2C)nnc1-c1ccccc1 |  | inactive: -5%
55 | Cc1c(Cl)c(-c2n[nH]c(=S)n2CC(C)C)nn1C | inconclusive: 89.1 µM [inhibitor, single point] | 
56 | CC(C)C(=O)N1CCN(c2ccccc2NC(=O)c2ccco2)CC1 | inconclusive: 89.1 µM [inhibitor, single point] | 
57 | S=c1[nH]nc(COc2ccccc2)n1/N=C/c1ccc(Cl)c(Cl)c1 | inconclusive: 14.1 µM [inhibitor, partial curve] | 
58 | c1cc2c3c(cccc3c1)NC(c1ccc3c(c1)OCO3)N2 | inconclusive: 31.6 µM [inhibitor, partial curve] | 
59 | Oc1ccc2c(c1)OCC1(O)Cc3cc(O)c(O)cc3C21 (configuration not stated) | inconclusive: 11.2 µM [inhibitor, full curve, poor fit] | 
60 | Cc1c(NC(=O)CSc2nc(N)cc(N)n2)c(=O)n(-c2ccccc2)n1C |  | inactive: 19.8%
61 | Cc1c(N(C)C(=O)c2ccco2)c(=O)n(-c2ccccc2)n1C | inconclusive: 39.8 µM [inhibitor, single point] | 
62 | Cc1nc(NC(=O)CC(C)C)sc1-c1csc(Nc2ccc(Cl)cc2)n1 | inconclusive: 39.8 µM [inhibitor, partial curve] | 
63 | COc1ccc(/C=C2/S/C(=N/S(=O)(=O)Cc3ccccc3)NC2=O)cc1OC |  | inactive: 14.6%
64 | CCN1CCC2(CC1)N=C(c1ccc(F)cc1)C(=S)N2 |  | inactive: 43.2%
65 | Cc1ccc(/C=N/N=C2/NC(=O)C(CC(=O)N3CCOCC3)S2)cc1 (configuration not stated) |  | inactive: 0.325%
66 | COc1ccnc(CSC(N)=Nc2cccc(C(F)(F)F)c2)c1 | inconclusive: 70.8 µM [inhibitor, partial curve] | 
67 | C=CCOc1ccccc1CN1CCCCCC1 | inconclusive: 79.4 µM [inhibitor, single point] | 

Reference: PubChem BioAssay AID540317 (National Center for Advancing Translational Sciences (NCATS), 2011)
